From the supplement of paper PMC10126150
Values marked as one replicate rest on one cluster of the flow cell; about a third of the high ones do not repeat.

Test system: ATP
Assay: switch fluorescence ratio, 500 uM ATP over buffer (Cy3 cluster intensity, sum of 5 cycles each) (fold (ratio)); higher = stronger signal-on switching upon ATP binding; sequences stand for … in TCGTCGGCAGCGTCAGATGTGTATAAGAGACAGTTTTTTTTTTTTTTTTTTTTTTTTT…TC
Conditions: aptamer strand: ATP DNA aptamer (quencher-CACCTGGGGGAGTATTGCGGAGGAAGG + anchor), 100 nM annealed; ATP concentration: 500 uM; one replicate
How it was run: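 Five buffer/ATP imaging cycles were run on Cy3-labelled switching-strand clusters on a modified Illumina MiSeq flow-cell, with NaOH stripping and re-annealing between cycles. In each cycle, clusters annealed to 100 nM quencher-labelled ATP aptamer were imaged in selection buffer, then after 15 min with 500 uM ATP at 22 °C. Per cluster, the fluorescence ratio is summed target-cycle over summed buffer-cycle Cy3 intensity, averaged per switch-domain sequence. Only clusters within 100-1000 RFU were kept.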
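Note: ATP exposure 15 min at 22 °C before imaging.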

Sequence: ACTACAGGCG
- switch fluorescence ratio: 1.12

Sequence: TTTAGCGACA
- switch fluorescence ratio: 0.998

Sequence: GTTATCTACG
- switch fluorescence ratio: 1.04

Sequence: ACCTTGCTGG
- switch fluorescence ratio: 1.05

Sequence: ATGCAGTCAA
- switch fluorescence ratio: 1.03

Sequence: TGCGGGTAGA
- switch fluorescence ratio: 1.03

Sequence: CTATTGGTAG
- switch fluorescence ratio: 0.98

Sequence: TAAAGTGTTA
- switch fluorescence ratio: 0.984

Sequence: ACGTGTGGTG
- switch fluorescence ratio: 1.02

Sequence: AGGTTCCGAG
- switch fluorescence ratio: 1.1

Sequence: ATATGTTATT
- switch fluorescence ratio: 1.03

Sequence: TTGTTGTTGA
- switch fluorescence ratio: 1.01

Sequence: TCACGATTTT
- switch fluorescence ratio: 1.02

Sequence: CGGGGCGTCG
- switch fluorescence ratio: 0.98

Sequence: TTCAGTAGAA
- switch fluorescence ratio: 1.02

Sequence: TTCAAATCTT
- switch fluorescence ratio: 1.02

Sequence: ACTCTTGCGA
- switch fluorescence ratio: 1.9

Sequence: AAGATGGTGC
- switch fluorescence ratio: 1.1

Sequence: GTGGAAGCTG
- switch fluorescence ratio: 0.958

Sequence: TAGGGTAACA
- switch fluorescence ratio: 0.991

Sequence: GTATACTTCG
- switch fluorescence ratio: 1.02

Sequence: AGAGCTTTTT
- switch fluorescence ratio: 0.99

Sequence: TAAAGGACG
- switch fluorescence ratio: 1

Sequence: GGATTCAGAT
- switch fluorescence ratio: 0.973

Sequence: TGCATAAGTA
- switch fluorescence ratio: 1.01

Sequence: GTGCTGCGTC
- switch fluorescence ratio: 1.03

Sequence: GTTTTAAGT
- switch fluorescence ratio: 0.994

Sequence: AGTGCTGTAC
- switch fluorescence ratio: 1.26

Sequence: GTGCACCTTC
- switch fluorescence ratio: 1.07

Sequence: ACTGACGCGA
- switch fluorescence ratio: 1.16

Sequence: TATGTAAGA
- switch fluorescence ratio: 0.928

Sequence: ACGGTATCTG
- switch fluorescence ratio: 0.994

Sequence: TCACATCGTT
- switch fluorescence ratio: 1.04

Sequence: CGCGGAGGCG
- switch fluorescence ratio: 0.977

Sequence: ATAATAGATG
- switch fluorescence ratio: 1.02

Sequence: CTGTGACAGC
- switch fluorescence ratio: 1.06

Sequence: GACCGTCCCC
- switch fluorescence ratio: 1.17

Sequence: AGAAGCATGT
- switch fluorescence ratio: 1.03

Sequence: GGTGAGATCG
- switch fluorescence ratio: 1

Sequence: CACTAGTCTA
- switch fluorescence ratio: 1.03

Sequence: GAAGAAACTA
- switch fluorescence ratio: 0.978

Sequence: GAAGCAGGCC
- switch fluorescence ratio: 1.06

Sequence: GTTGGAAGGG
- switch fluorescence ratio: 1.01

Sequence: GTGGTGCCGT
- switch fluorescence ratio: 1.1

Sequence: GTACCTATAA
- switch fluorescence ratio: 1.03

Sequence: TTGGGTGAAA
- switch fluorescence ratio: 1.1

Sequence: CGTTGTAGAG
- switch fluorescence ratio: 0.985

Sequence: CCGTTGGAGT
- switch fluorescence ratio: 1.04

Sequence: TGGTTGTAT
- switch fluorescence ratio: 1.01

Sequence: TCCTATGATA
- switch fluorescence ratio: 1.08

Sequence: AATACGGGAA
- switch fluorescence ratio: 1.03

Sequence: CCGGCAGCGC
- switch fluorescence ratio: 1.61

Sequence: TCGGCGAGGC
- switch fluorescence ratio: 1.09

Sequence: GTAGCAATTG
- switch fluorescence ratio: 4.19

Sequence: ATATTAGCTA
- switch fluorescence ratio: 1

Sequence: CAAATTGTGA
- switch fluorescence ratio: 0.946

Sequence: TCGCGGGGGT
- switch fluorescence ratio: 1.04

Sequence: CTGCTTAAGA
- switch fluorescence ratio: 0.993

Sequence: CCGGCCGGTT
- switch fluorescence ratio: 0.992

Sequence: TCGTTGAATT
- switch fluorescence ratio: 0.983

Sequence: TGGGTCATCA
- switch fluorescence ratio: 1.02

Sequence: CATTCGTCTA
- switch fluorescence ratio: 1.09

Sequence: ATTGCGACGA
- switch fluorescence ratio: 1.04

Sequence: ACGATTGCCA
- switch fluorescence ratio: 1.03

Sequence: TTTAACGCGA
- switch fluorescence ratio: 1.07

Sequence: TCGGCACTTA
- switch fluorescence ratio: 1.05

Sequence: GGGCCCAAGC
- switch fluorescence ratio: 1

Sequence: TTCGGCCTCC
- switch fluorescence ratio: 2.15

Sequence: TTCAGTGCTT
- switch fluorescence ratio: 1.02

Sequence: ATCGGCGTGC
- switch fluorescence ratio: 0.972

Sequence: AGGATGCAGC
- switch fluorescence ratio: 0.996

Sequence: AGACACGGGT
- switch fluorescence ratio: 1.02

Sequence: AACTACGGGA
- switch fluorescence ratio: 1.19

Sequence: GTGCACTTAC
- switch fluorescence ratio: 1.37

Sequence: CTAGTAATTG
- switch fluorescence ratio: 1.03

Sequence: ATCGAGCATC
- switch fluorescence ratio: 1.07

Sequence: TGATTTTAAC
- switch fluorescence ratio: 0.962

Sequence: AAGCTCTTCA
- switch fluorescence ratio: 1.03

Sequence: TATCGGTTTC
- switch fluorescence ratio: 0.986

Sequence: GTAGTGGTAT
- switch fluorescence ratio: 0.995

Sequence: CTCCTGCTGT
- switch fluorescence ratio: 2.22

Sequence: GGTGGGTCG
- switch fluorescence ratio: 1.02

Sequence: TGGAGAACGT
- switch fluorescence ratio: 1

Sequence: TACCGCCTGA
- switch fluorescence ratio: 1.08

Sequence: TGCGCATATA
- switch fluorescence ratio: 1.23

Sequence: TGGCGTCTAA
- switch fluorescence ratio: 0.969

Sequence: ATAGCGGCAA
- switch fluorescence ratio: 1.23

Sequence: GGGTACCTAT
- switch fluorescence ratio: 1.01

Sequence: TATATGAAAT
- switch fluorescence ratio: 0.942

Sequence: ATTTATATGA
- switch fluorescence ratio: 1

Sequence: GCGGCTATAT
- switch fluorescence ratio: 1.13

Sequence: TACCAAAGTA
- switch fluorescence ratio: 1.04

Sequence: ATCGGTGCGA
- switch fluorescence ratio: 0.969

Sequence: CTGCTAGTTG
- switch fluorescence ratio: 1.02

Sequence: ATACTCGCAA
- switch fluorescence ratio: 5.66

Sequence: TATTGACAGC
- switch fluorescence ratio: 1.17

Sequence: ATATAGTGGG
- switch fluorescence ratio: 0.976

Sequence: TGTTATGCGG
- switch fluorescence ratio: 0.965

Sequence: TTTTGTTGAC
- switch fluorescence ratio: 0.969

Sequence: GAGCTTCACG
- switch fluorescence ratio: 1.03

Sequence: ATTATCTGGA
- switch fluorescence ratio: 1.01

Sequence: CGTATCGCAC
- switch fluorescence ratio: 1.52

Sequence: GACGGACCTT
- switch fluorescence ratio: 1.07

Sequence: GCTGCTAAAA
- switch fluorescence ratio: 1.04

Sequence: GCTCAAGTCC
- switch fluorescence ratio: 1.01

Sequence: AGCAGATCTC
- switch fluorescence ratio: 1.24

Sequence: CAGATCTGAG
- switch fluorescence ratio: 1.04

Sequence: TATGGCATAG
- switch fluorescence ratio: 1.01

Sequence: CTAACATCTA
- switch fluorescence ratio: 1.01

Sequence: AAGTCGAAGA
- switch fluorescence ratio: 1.01

Sequence: AGAGGGAAGC
- switch fluorescence ratio: 1.09

Sequence: ACTCTTTATT
- switch fluorescence ratio: 1.01

Sequence: TTTGTTGATC
- switch fluorescence ratio: 1.03

Sequence: TCCCCTAATC
- switch fluorescence ratio: 1.07

Sequence: AGTGTTTTAT
- switch fluorescence ratio: 1.01

Sequence: GAGCAGGGTT
- switch fluorescence ratio: 1.01

Sequence: TTTGGAGAGT
- switch fluorescence ratio: 1.01

Sequence: GACTAGATGG
- switch fluorescence ratio: 0.973

Sequence: TAATGTGTCC
- switch fluorescence ratio: 1

Sequence: AACGGAAAC
- switch fluorescence ratio: 1.18

Sequence: TACGTAATTA
- switch fluorescence ratio: 1.22

Sequence: CCTAGCACAA
- switch fluorescence ratio: 3.16

Sequence: GCTGTACCCC
- switch fluorescence ratio: 1.43

Sequence: CCTCTTGGTC
- switch fluorescence ratio: 1.16

Sequence: ATTGCAGGCA
- switch fluorescence ratio: 0.961

Sequence: TAGAAGCCCG
- switch fluorescence ratio: 1.02

Sequence: TAACTGGAAG
- switch fluorescence ratio: 1.03

Sequence: ATGATCGGTC
- switch fluorescence ratio: 0.994

Sequence: TGGCTTGACC
- switch fluorescence ratio: 1

Sequence: CGGTAAGGTC
- switch fluorescence ratio: 0.952

Sequence: TGGCCCACCA
- switch fluorescence ratio: 1

Sequence: GTAACTGGAT
- switch fluorescence ratio: 1.1

Sequence: GTGTTGGTGG
- switch fluorescence ratio: 1.04

Sequence: GACTCGAGAT
- switch fluorescence ratio: 1.05

Sequence: AAGGCTTCAT
- switch fluorescence ratio: 1

Sequence: CTGCACCAGA
- switch fluorescence ratio: 1.08

Sequence: TGACGGCGGT
- switch fluorescence ratio: 1.09

Sequence: GGGGCCACAT
- switch fluorescence ratio: 1

Sequence: TTGGTACCAG
- switch fluorescence ratio: 1.04

Sequence: GTAGGCCAGG
- switch fluorescence ratio: 1.01

Sequence: CGGTGAACTA
- switch fluorescence ratio: 1.04

Sequence: GAGACCATAA
- switch fluorescence ratio: 0.99

Sequence: TGGTGTGTGG
- switch fluorescence ratio: 0.991

Sequence: CAGTCGGCAA
- switch fluorescence ratio: 2.31

Sequence: GCAATATCAG
- switch fluorescence ratio: 1.19

Sequence: ATACGGTG
- switch fluorescence ratio: 1.02

Sequence: CCGTCATCTA
- switch fluorescence ratio: 1.11

Sequence: AATTCGAGTG
- switch fluorescence ratio: 0.995

Sequence: CTTATTTACG
- switch fluorescence ratio: 1.02

Sequence: CGGGTCGGAG
- switch fluorescence ratio: 1.03

Sequence: ATCCTCTATT
- switch fluorescence ratio: 1.05

Sequence: GGGACAGTTT
- switch fluorescence ratio: 0.988

Sequence: AGCCCATCGA
- switch fluorescence ratio: 1.01

Sequence: GCTGACACGC
- switch fluorescence ratio: 1.11

Sequence: CGGCTACTGT
- switch fluorescence ratio: 1.04

Sequence: CTAGTTCTCG
- switch fluorescence ratio: 1.01

Sequence: AGGCCTTGTA
- switch fluorescence ratio: 0.987
